Patent US6730699B2, “Water soluble paclitaxel derivatives” (priority 2001, dated 2004)

Experiments:
OCA-1 ovarian carcinoma = conditions: paclitaxel alone or with PG, same dose as PG-TXL
MCa-4 mammary carcinoma [1] = conditions: for Time to Grow 500-2000 mm^3: mean ± SD
FSa-II fibrous sarcoma = conditions: for Time to Grow 500-2000 mm^3: mean ± SD
HCa-I hepatocarcinoma = conditions: for Time to Grow 500-2000 mm^3: mean ± SD
[2] = test system: rat mammary adenocarcinoma 13762F; conditions: single dose 20 mg equivalent paclitaxel/kg
MCa-4 mammary carcinoma [3] = conditions: single dose 40 mg/kg, tumors 8 mm at treatment
bovine brain tubulin = conditions: 1 μM, 32° C., 1.0 mM GTP, 1 mg/ml tubulin
B16 melanoma cells [4] = test: cells; conditions: Mus musculus, B16, 40 h
MCa-4 mammary carcinoma [5] = test: Whole-body gamma scintigraphy; conditions: i.v. via tail vein, MCa-4 tumor 12 mm
B16 melanoma cells [6] = conditions: 40-h incubation, cell count

## CC(=O)O[C@H]1C(=O)[C@@]2(C)[C@H]([C@H](OC(=O)c3ccccc3)[C@]3(O)C[C@H](OC(=O)[C@H](O)[C@@H](NC(=O)c4ccccc4)c4ccccc4)C(C)=C1C3(C)C)[C@]1(OC(C)=O)CO[C@@H]1C[C@@H]2O [Paclitaxel, paclitaxel]
OCA-1 ovarian carcinoma
  tumor growth: tumors regrew to levels comparable to an untreated control group after ten days
MCa-4 mammary carcinoma [1]; 40 mg/kg
  AGD (absolute growth delay): 4.2 days
MCa-4 mammary carcinoma [1]; 40 mg/kg single i.v.
  Time to Grow 500-2000 mm^3: 9.0 ± 0.6 (4) days
MCa-4 mammary carcinoma [1]; 60 mg/kg
  AGD (absolute growth delay): 4.5 days
MCa-4 mammary carcinoma [1]; 60 mg/kg single i.v.
  Time to Grow 500-2000 mm^3: 9.3 ± 0.3 (5) days
FSa-II fibrous sarcoma; 80 mg/kg
  AGD (absolute growth delay): 2.3 days
FSa-II fibrous sarcoma; 80 mg/kg single i.v.
  Time to Grow 500-2000 mm^3: 4.2 ± 0.3 (6) days
HCa-I hepatocarcinoma; 80 mg/kg
  AGD (absolute growth delay): -0.9 days
HCa-I hepatocarcinoma; 80 mg/kg single i.v.
  Time to Grow 500-2000 mm^3: 6.4 ± 0.5 (5) days
[2]
  tumor growth delay (2,000 to 10,000 mm^3 vs saline): 5 days
MCa-4 mammary carcinoma [3]
  time for the tumor to reach 12 mm in diameter: 9.4 days
Bovine brain tubulin
  tubulin polymerization (absorbance at 340 nm): clear increase in absorbance
OCA-1 tumors; 80 mg/kg, especially day 1
  histological changes in tumor: marked nuclear fragmentation with formation of apoptotic bodies
B16 melanoma cells [4]
  IC50: 15 nM

## O=C([O-])CN(CCN(CC(=O)[O-])CC(=O)[O-])CCN(CC(=O)[O-])CC(=O)[O-].[111In+3].[H+].[H+] [^111In-DTPA]
MCa-4 mammary carcinoma [5]
  tumor uptake by gamma scintigraphy: negligible retention in the tumor

## Poly-Glutamic Acid-Paclitaxel [PG-TXL]
MCa-4 mammary carcinoma [1]; 40 mg/kg
  AGD (absolute growth delay): 3.8 days
MCa-4 mammary carcinoma [1]; 40 mg/kg single i.v.
  Time to Grow 500-2000 mm^3: 8.6 ± 1.2 (4) days
MCa-4 mammary carcinoma [1]; 60 mg/kg
  AGD (absolute growth delay): 9.4 days
MCa-4 mammary carcinoma [1]; 60 mg/kg single i.v.
  Time to Grow 500-2000 mm^3: 14.2 ± 1.1 (5) days
MCa-4 mammary carcinoma [1]; 120 mg/kg
  AGD (absolute growth delay): 39.6 days
MCa-4 mammary carcinoma [1]; 120 mg/kg single i.v.
  Time to Grow 500-2000 mm^3: 44.4 ± 2.9 (5) days
FSa-II fibrous sarcoma; 80 mg/kg
  AGD (absolute growth delay): 1.9 days
FSa-II fibrous sarcoma; 80 mg/kg single i.v.
  Time to Grow 500-2000 mm^3: 3.8 ± 0.4 (6) days
FSa-II fibrous sarcoma; 160 mg/kg
  AGD (absolute growth delay): 3.2 days
FSa-II fibrous sarcoma; 160 mg/kg single i.v.
  Time to Grow 500-2000 mm^3: 5.1 ± 0.3 (13) days
HCa-I hepatocarcinoma; 40 mg/kg
  AGD (absolute growth delay): 0.9 days
HCa-I hepatocarcinoma; 40 mg/kg single i.v.
  Time to Grow 500-2000 mm^3: 8.2 ± 0.7 (5) days
HCa-I hepatocarcinoma; 80 mg/kg
  AGD (absolute growth delay): 1.3 days
HCa-I hepatocarcinoma; 80 mg/kg single i.v.
  Time to Grow 500-2000 mm^3: 8.6 ± 0.2 (5) days
HCa-I hepatocarcinoma; 160 mg/kg
  AGD (absolute growth delay): 3.7 days
HCa-I hepatocarcinoma; 160 mg/kg single i.v.
  Time to Grow 500-2000 mm^3: 11.0 ± 0.8 (4) days
OCA-1 tumors; 160 mg equivalent paclitaxel/kg
  histological changes in tumor: mild increase in mitotically arrested cells and apoptotic cells
OCA-1 tumors; 160 mg equivalent paclitaxel/kg, by 96 h
  histological changes in tumor: extensive edema and necrosis

## diethylenetriaminepentaacetic acid-paclitaxel [DTPA-paclitaxel]
B16 melanoma cells [6]
  IC50: 7.5 nM
MCa-4 mammary carcinoma [3]
  time for the tumor to reach 12 mm in diameter: 12.1 days

## polyethylene glycol-paclitaxel [PEG-paclitaxel]
MCa-4 mammary carcinoma [3]
  time for the tumor to reach 12 mm in diameter: 8.5 days

Read-outs that look alike come from different tables or passages of the source.
